According to PubChem BioAssay AID504832 (National Center for Advancing Translational Sciences (NCATS), 2011):
Screen size: about 310,000 compounds; about 18,000 (5.8%) were called active. The shares of active, inactive and inconclusive entries below differ from those in the screen. Calls come from the whole dose curve; as a rule, active = well fitted inhibition curve with a large enough effect; inconclusive = small, poorly fitted or top-dose-only effect, or another doubt; inactive = no such curve, though single readings can be large or run the other way. Potencies of inconclusive entries are left out as doubtful fits.

Assay: Primary qHTS for delayed death inhibitors of the malarial parasite plastid, 48 hour incubation
Conditions: P. falciparum luciferase growth in erythrocytes; series mostly up to 28.7 µM; activity change, negative = inhibition: at the top concentration
Summary of the method: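 First compound was added to culture medium, then infected red cells at 0.1% parasitemia and 2% hematocrit (final). After incubation at 37 C under 5% CO2, luciferase detection reagent was dispensed and light output recorded.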
% is set by controls: 0 for no effect and ±100 for the full control effect; potency is the fitted concentration of half-maximal effect; tags give direction and shape of the fitted curve.

SMILES | Potency | activity change, negative = inhibition
CC(C)CN1C(=O)c2ccc(NC(=O)c3cccs3)cc2C1=O | active: 8.28 µM | –
CCc1ccc(NC(=O)c2cc(Br)ccc2Br)cc1 | – | inactive: 4.69%
COc1cc(NC(=O)CSc2nnnn2C2CCCC2)cc(OC)c1 | – | inactive: 38.4%
CC(C)(C)c1cc(S(=O)(=O)CCc2ccncc2)cc(C(C)(C)C)c1F | inconclusive [inhibitor, single point] | –
COc1ccccc1Cn1nnc2c(=O)[nH]c(C3CCN(C(=O)c4ccc(F)cc4)CC3)nc21 | active: 11.7 µM | –
O=C(OCC#CCSc1nnc(-c2cccc3ccccc23)o1)c1cccc2[nH]ccc12 | inconclusive [inhibitor, partial curve, poor fit] | –
Nc1c(C(=O)CSc2nnc(Nc3ccc(F)cc3)s2)c(=O)[nH]c(=O)n1C1CC1 | inconclusive [inhibitor, partial curve, poor fit] | –
Cc1ccc(S(=O)(=O)N(C)c2ccc(C(=O)NCc3cccnc3)cc2)cc1 | inconclusive [inhibitor, partial curve] | –
CCCCN1Cc2cc(C(=O)c3cc(OC)ccc3O)cnc2NC1=O | inconclusive [inhibitor, partial curve, poor fit] | –
COc1ccccc1CNC(=O)C(C)NS(=O)(=O)c1ccc(C)cc1 (centres undefined) | inconclusive [inhibitor, partial curve] | –
O=C(Nc1ccccc1NC(=O)c1c(F)c(F)c(F)c(F)c1F)c1c(F)c(F)c(F)c(F)c1F | inconclusive [inhibitor, single point] | –
O=C(CCCN1C(=O)/C(=C/c2ccco2)SC1=S)Nc1ccccc1C(=O)O | – | inactive: -11.4%
CCN(CC)S(=O)(=O)c1ccc(N2CCCC2)c(NC(=O)c2ccccc2OC)c1 | inconclusive [inhibitor, partial curve, poor fit] | –
Cc1ccc(-n2nc3c(=O)n(CCCC(=O)NCc4ccc(Cl)cc4)nc(C)c3c2C)cc1 | inconclusive [inhibitor, partial curve] | –
CCOC(=O)c1ccc(NC(=O)COc2coc(CN3CCc4ccccc43)cc2=O)cc1 | inconclusive [inhibitor, single point] | –
Cc1ccc(-n2c(CSc3nc(C)cc(C)n3)nnc2SCC(=O)Nc2nccs2)cc1 | inconclusive [inhibitor, partial curve, poor fit] | –
N#C/C(=C\c1ccc[nH]1)C(=O)N1CCCCC1 | inconclusive [inhibitor, single point] | –
Cc1ccc(S(=O)(=O)CCC(=O)Nc2nc(-c3ccccn3)cs2)cc1 | active: 13.1 µM | –
Cc1ccsc1C(=O)N1CCCC(CCC(=O)NCc2ccc(F)c(F)c2)C1 (centres undefined) | inconclusive [inhibitor, single point] | –
CCOc1ccccc1NC(=O)c1ccc2c(=O)n3c(nc2c1)CCCCC3 | inconclusive [inhibitor, partial curve] | –
O=C(Nc1ccc(-n2cccn2)cc1)C1CCN(Cc2ccsc2)CC1 | inconclusive [inhibitor, partial curve] | –
O=S(=O)([N-]c1nc2ccccc2nc1-n1cc[n+](Cc2ccccc2)c1)c1ccc(Cl)cc1 | inconclusive [inhibitor, single point] | –
O=C(NCCc1ccc(Cl)cc1)C1CCN(c2cnccn2)CC1 | – | inactive: -23.1%

SMILES | Potency | activity change, negative = inhibition
O=C(Nc1ccncc1)Nc1ccc(Br)cc1Cl | inconclusive [inhibitor, single point] | –
OCC1(Cc2ccccc2C(F)(F)F)CCN(Cc2cccc3cnccc23)CC1 | active: 11.7 µM | –
Cc1nc(C(=O)Nc2ccc(Cl)cc2)sc1C1(C)CC(c2ccccc2)=NO1 (centres undefined) | inconclusive [inhibitor, single point] | –
Cc1cc(C(=O)CSc2nnc(-c3cccnc3)n2-c2ccccc2F)c(C)n1C | inconclusive [inhibitor, single point] | –
O=C(c1cc(-c2cccnc2)nc2ccccc12)N1CCN(S(=O)(=O)c2cccs2)CC1 | active: 11.7 µM | –
COc1ccc(CCNC2CC(=O)N(N(C)C)C2=O)cc1OC (centres undefined) | – | inactive: 137%
CCN(C(=O)c1cnc(NC(C)C)cc1C(F)(F)F)c1ccc(Cl)cc1 | inconclusive [inhibitor, full curve, poor fit] | –
CCCCc1ccc(NC(=S)Nc2ccc(Cl)c(S(=O)(=O)N(C)C)c2)cc1 | – | inactive: -14.2%
O=C(O)Cc1sc(Nc2ccccc2)nc1-c1ccc(Cl)cc1 | – | inactive: 92%
COc1cc(C(CC(=O)Nc2ccc(C)cn2)N2Cc3ccccc3C2=O)cc(OC)c1OC (centres undefined) | – | inactive: -19.8%
CC1(c2ccc3ccccc3c2)NC(=O)N(CC(=O)N2CCN(Cc3ccc(C#N)cc3)CC2)C1=O (centres undefined) | inconclusive [inhibitor, single point] | –
COc1ccc(C)cc1NC(=O)NNC(=O)c1cc2ccccc2cc1O | inconclusive [inhibitor, partial curve, poor fit] | –
C=C1CSc2nc3ccccc3c(=O)n21 | – | inactive: 13%
O=C(CN1C(=O)S/C(=C\C=C\c2ccccc2)C1=O)N1CCOCC1 | – | inactive: 53.9%
CCCCn1c(N)c(N(CC(C)C)C(=O)COc2cc(C)ccc2Cl)c(=O)[nH]c1=O | – | inactive: 11%
COc1ccccc1C(=O)N(C1=NC(C)CS1)c1ccc(Cl)cc1 (centres undefined) | inconclusive [inhibitor, partial curve] | –
O=C(CN1CCN(CCOCCO)CC1)N1c2ccccc2Sc2ccc(Cl)cc21 | inconclusive [inhibitor, single point] | –
CC1(C)Cc2c(C#N)c(SCCO)nc(N3CCOCC3)c2CO1 | inconclusive [inhibitor, single point] | –
CCOC(=O)c1ccc(NC(=O)Nc2ccn(C)n2)cc1 | – | inactive: -8.56%
O=C(CNCc1cccc2ccccc12)Nc1ccccc1[N+](=O)[O-] | inconclusive [inhibitor, single point] | –
Cc1cccc(C)c1N1C(=O)[C@@H]2C(c3ccccc3Cl)=NO[C@@H]2C1=O | – | inactive: 2.91%
Cc1ccc(S(=O)(=O)N(CC(=O)Nc2cccnc2)c2cccc([N+](=O)[O-])c2)cc1 | inconclusive [inhibitor, single point] | –
Cc1ccc(-c2nnc(Nc3ccc(C(N)=O)cc3)c3ccccc23)cc1S(=O)(=O)NCC1CCCO1 (centres undefined) | active: 8.28 µM | –

SMILES | Potency | activity change, negative = inhibition
CC(NC(=O)C1CCN(S(=O)(=O)N2CCC3(CC2)OCCO3)CC1)c1ccccc1 (centres undefined) | – | inactive: 1.81%
CCOC(=O)N1CCC(N(CCN(C)C)C(=S)Nc2cccc(Cl)c2C)CC1 | inconclusive [inhibitor, single point] | –
COc1ccc(NC(=O)CSc2nc(O)cc(=O)n2-c2ccccc2)cc1 | – | inactive: 1.15%
Cc1cc2nc(-c3ccc[nH]c3=O)n(Cc3ccccc3F)c2cc1C | – | inactive: 12.7%
O=C1CSC(c2cccnc2)N1Cc1ccc(Cl)c(Cl)c1 (centres undefined) | inconclusive [inhibitor, full curve, poor fit] | –
Cc1cc(/C=N/NC(=O)c2ccccc2F)c(C)n1-c1ccccc1 | – | inactive: 252%
COc1ccc(N(CC(=O)NCc2cccnc2)S(=O)(=O)c2ccc(C)c([N+](=O)[O-])c2)cc1 | – | inactive: 13%
Cc1ccc(OCC(=O)NNC(=O)C2CC(=O)N(c3ccc4c(c3)OCCO4)C2)cc1 (centres undefined) | inconclusive [inhibitor, single point] | –
C/C(=N\NC(=O)c1ccco1)c1ccc(NC(=O)c2ccccc2)cc1 | – | inactive: 325%
CN1CCN(C(=O)CSc2nc3ccc(NC(=O)c4ccccc4F)cc3s2)CC1 | inconclusive [inhibitor, partial curve] | –
CN1C(=O)Cc2cc(S(=O)(=O)N3CCN(c4cccc(Cl)c4)CC3)ccc21 | – | inactive: -4.43%
COCC[N+]1(C)CCCCC1 | inconclusive [inhibitor, full curve, poor fit] | –
CCOc1ccc2[nH]c(=O)c(CN(CCCN3CCOCC3)Cc3nnnn3Cc3ccc(OC)cc3)cc2c1 | inconclusive [inhibitor, partial curve, poor fit] | –
Cc1ccc(Nc2ncccc2C(N)=O)cc1 | – | inactive: 193%
Cc1ccc(NC(=O)CSc2nnc([C@@H](N)Cc3c[nH]c4ccccc34)o2)c(C)c1 | inconclusive [inhibitor, single point] | –
CN(c1ccccc1)S(=O)(=O)c1cccc(C(=O)Nc2ccc3c(c2)CCC3)c1 | inconclusive [inhibitor, single point] | –
CCCCOc1c(C(=O)Nc2ccccc2)nnn1-c1ccccc1 | inconclusive [inhibitor, partial curve] | –
CCC(C)(C)NC(=O)/C=C/c1cnc2ccccc2n1 | – | inactive: 269%
C=CCNC(=O)/C(C#N)=C/c1c(C)nn(-c2ccccc2)c1Cl | inconclusive [inhibitor, single point] | –
CCCCN(C(=O)NCCCCCCNC(=O)N(CCCC)C1CCS(=O)(=O)C1)C1CCS(=O)(=O)C1 (centres undefined) | inconclusive [inhibitor, partial curve, poor fit] | –
O=C(NCCCc1ccccc1)c1ccc(-n2cncn2)c([N+](=O)[O-])c1 | inconclusive [inhibitor, partial curve, poor fit] | –
COc1ccc([C@H]2CC(=O)C=C(c3cc(Cl)ccc3OC)C2)cc1 | inconclusive [inhibitor, single point] | –
CCN(C(=O)CSc1cc(C)c2cccc(C)c2n1)C1CCS(=O)(=O)C1 (centres undefined) | – | inactive: 0%
